Experimental data: article PMC10668032
The list shows a part of the results. At the low end of the ranking, values are background and their order means little.

target: SIX1 homeodomain (reference allele) (UniProt Q15475); experiment: universal protein binding microarray; conditions: Universal all-10-mer PBM (8x60K, AMADID 030236), 300 nM GST-tagged protein, Alexa Fluor 488 anti-GST; buffer, salt, pH and temperature not stated; high values mean tight binding; most listed sequences are background and not binding sites; double strand, one strand shown

Row | Sequence | binding signal [E-score]
1 | ATAAGACC | -0.183
2 | AGCCCAAT | -0.165
3 | AGTGTCAA | 0.168
4 | CGTCATAG | -0.378
5 | AAGTATCG | 0.369
6 | ATTATCAA | 0.165
7 | AGTCCTAG | -0.197
8 | CCCGGGAA | 0.0874
9 | ATCCGCTG | 0.305
10 | ACGCAGGG | -0.0604
11 | GAACGCAC | -0.193
12 | AGTACTGA | -0.033
13 | AATCCACT | 0.0419
14 | CCTGAGTC | -0.0643
15 | ATCGGATA | 0.423
16 | AAGTCCGC | -0.188
17 | GGGAGGAC | -0.207
18 | GGTAGAAA | -0.137
19 | GGGCTTCA | -0.196
20 | CGACGGCA | -0.0214
21 | AACGGTCC | -0.385
22 | GACCTCTA | -0.243
23 | AGGAACAG | -0.166
24 | TACGTAGA | -0.00441
25 | ATTCGCGG | 0.0131

Row | Sequence | binding signal [E-score]
26 | TAACCTAA | -0.149
27 | ACGTTTCG | -0.118
28 | CACATTCA | -0.207
29 | TTTTAAAA | 0.0226
30 | AAACATAG | -0.334
31 | AGGAATAT | 0.199
32 | CAGCACCA | -0.0959
33 | AAACCCCT | 0.0625
34 | AACCGGCC | -0.16
35 | ACGTTTAG | -0.113
36 | ACTAGGGA | -0.114
37 | GAGCGTAA | -0.198
38 | CCATCTAC | 0.161
39 | TCCGAGGA | 0.0698
40 | CTACGTCA | -0.0636
41 | TCCCGACA | 0.0528
42 | ATGAACGA | 0.0796
43 | ATCAGGAT | 0.394
44 | ATGAACTC | -0.0936
45 | ATGCCACA | -0.0216
46 | AAGGTTAT | -0.0395
47 | ATAAACGA | 0.0453
48 | CTGAGCCC | 0.161
49 | CTCAGTGC | -0.0169
50 | AGTCCGTC | -0.19

Row | Sequence | binding signal [E-score]
51 | GAAAGGTC | -0.117
52 | CATTATTA | -0.114
53 | ACCGCGTA | -0.00515
54 | CACATGAG | -0.189
55 | CACCTACG | 0.0118
56 | CAGGTTTC | -0.0245
57 | CAAACTAG | 0.0333
58 | CGGGGACC | -0.139
59 | CATCTGTA | -0.057
60 | AAATTGGC | -0.22
61 | AAGCAAAA | -0.27
62 | GGAACACA | -0.131
63 | CTGGGGCC | 0.0514
64 | ATTCGTGC | -0.123
65 | GATACAAA | 0.252
66 | GGTCTTGA | -0.035
67 | ATATCGCA | 0.42
68 | CGAAAGGC | -0.226
69 | GTCTGAGA | -0.021
70 | AGCGAACA | -0.107
71 | AGCCTCCG | -0.0318
72 | AGTACTTA | -0.22
73 | ACGCTATA | -0.0146
74 | ACTTTGCC | -0.183
75 | AAGGATAT | 0.365

Row | Sequence | binding signal [E-score]
76 | CTATCTGC | 0.19
77 | CCCTATAC | 0.271
78 | GACAAATA | -0.0816
79 | AATCTCTA | 0.0606
80 | CACCGCTA | -0.0119
81 | ATTTCACA | -0.0231
82 | GCGTCGAC | 0.017
83 | ATATTACA | 0.266
84 | CTCCCCTC | 0.069
85 | AGATCAAT | 0.383
86 | GACTTGTA | -0.033
87 | AATGACGG | -0.168
88 | GACAGAGA | -0.104
89 | CAAGTATG | -0.0542
90 | CCTCGGAA | 0.0957
91 | CAGATACG | 0.334
92 | AACTACTT | -0.102
93 | CGATCGGC | 0.18
94 | AGATCAAC | 0.264
95 | AACCGGTC | -0.171
96 | CGCAAACC | 0.0504
97 | TAGGAAAA | -0.167
98 | GCGCTGAA | -0.324
99 | AAGTGGTG | 0.109
100 | AAGACGCA | -0.0798

Row | Sequence | binding signal [E-score]
101 | GTCTGCCA | -0.16
102 | AGAGTATA | 0.262
103 | AGTCAGTG | 0.00155
104 | CACTTTTA | -0.266
105 | ATGAGTAC | -0.0324
106 | CCCCTCCG | 0.129
107 | GGCACTAC | -0.24
108 | GACCATGA | 0.216
109 | ATTTGACA | 0.000975
110 | AGCAGGAC | -0.142
111 | AATTAACC | -0.0197
112 | AGGTCGAT | 0.133
113 | GTAGATAC | 0.289
114 | GAAATCAA | -0.36
115 | CGAGCGCG | -0.128
116 | ACCGCGCT | -0.218
117 | AGTCGGAG | -0.171
118 | ACAACTGT | -0.223
119 | ACCTCCCC | 0.0354
120 | CAAGAAAA | 0.0158
121 | AAGAGATT | -0.146
122 | GAATTAGC | -0.201
123 | CGTGGATC | 0.293
124 | GGGGGTAA | 0.128
125 | GTTCTCGA | -0.168

Row | Sequence | binding signal [E-score]
126 | CATCAACA | 0.0129
127 | GAGAGCAC | 0.0376
128 | CCTTGCTA | -0.0776
129 | ATGCAGCG | -0.23
130 | CGCCCTTC | -0.11
131 | GCGCTTCA | -0.261
132 | ATCTGTCC | 0.29
133 | CCGCCGCG | 0.101
134 | TGACCTAA | -0.0497
135 | GTATGGTA | 0.234
136 | CCGCGACG | -0.0756
137 | AAGGCGGA | 0.04
138 | CAAAATGG | -0.149
139 | GTACACGA | 0.165
140 | AACCTAAT | -0.00121
141 | GAAAGTCC | -0.267
142 | GATCCGGC | 0.393
143 | AGCGCGAG | -0.147
144 | CAAGAAGA | 0.0904
145 | CGATTTCA | -0.105
146 | AGCTTGGG | -0.116
147 | CACTTGCG | -0.0273
148 | ACAGGAAT | -0.277
149 | CCTGCTTC | -0.0441
150 | CGGAAACC | -0.0611

Row | Sequence | binding signal [E-score]
151 | ATCGTCGA | 0.0943
152 | CGTGGCCA | -0.237
153 | CTCCCATC | 0.051
154 | CGCTTAAA | -0.164
155 | AGTCGACA | -0.00172
156 | CTGGCGTA | 0.0849
157 | ACGCCTCC | -0.1
158 | TCAATAAA | -0.105
159 | ATACCAGG | 0.377
160 | ATCCTCAG | 0.258
161 | GCTGATAA | 0.118
162 | CTCCCTCC | -0.0323
163 | ATGTTAGA | -0.0524
164 | CAAAAAAC | -0.218
165 | GCCGGAAA | -0.0388
166 | ACGTAACG | -0.15
167 | GACAACGA | -0.131
168 | CATGGAGG | 0.0136
169 | GTACGTCA | -0.059
170 | ATGTGACG | -0.0542
171 | AGGATAGG | 0.306
172 | CGGATGAA | 0.0999
